Source: US8067379B2, “Sulfur compounds as inhibitors of hepatitis C virus NS3 serine protease” (Schering Corporation, priority 2004, dated 2011)

Target: Recombinant heterodimeric HCV NS3/NS4A protease (strain 1a) (Hepatitis C virus genotype 1a, UniProt P27958)
Assay: Spectrophotometric assay for HCV serine protease inhibitory activity (chromogenic ester substrates)
Assay type: biochemical
Conditions: Table 3A; cells that print a number instead of a class symbol; read-out: Ki* Range

SMILES | Ki [nM]
C=CCNC(=O)C(=O)[C@H](CCCC)NC(=O)[C@@H]1[C@@H]2[C@H](CN1C(=O)[C@@H](NC(=O)NC1(C3COCCS3(=O)=O)CCCCC1)C(C)(C)C)C2(C)C (some centres unmarked) [Compound 883-w] | 3

Same assay, conditions: Table 3A; class symbols; read-out: Ki* Range

SMILES | Ki [nM]
CNC(=O)C(=O)[C@H](CC1CC1)NC(=O)[C@@H]1[C@@H]2[C@H](CN1C(=O)[C@@H](NC(=O)NC1([C@@H]3CCCS3(=O)=O)CCCCC1)C1(C)CCCCC1)C2(C)C [Compound 883-ey] | < 75
CNC(=O)C(=O)[C@@H](CC1CC1)NC(=O)[C@@H]1[C@@H]2[C@H](CN1C(=O)[C@@H](NC(=O)NC1([C@H]3CCCS3(=O)=O)CCCCC1)C1(C)CCCCC1)C2(C)C [Compound 883-ez] | < 75
C=CCNC(=O)C(=O)[C@H](CCC1CC1)NC(=O)[C@@H]1[C@@H]2[C@H](CN1C(=O)[C@@H](NC(=O)NC1([C@@H]3CCCS3(=O)=O)CCCCC1)C(C)(C)C)C2(Cl)Cl [Compound 883-f] | < 75
CCCNC(=O)C(=O)[C@H](CCC)NC(=O)[C@@H]1[C@@H]2[C@H](CN1C(=O)[C@@H](NC(=O)NC1(C3CCCS3(=O)=O)CCOCC1)C(C)(C)C)C2(C)C (some centres unmarked) [Compound 883-fb] | < 75
CCNC(=O)C(=O)[C@H](CCC1CC1)NC(=O)[C@@H]1[C@@H]2[C@H](CN1C(=O)[C@@H](NC(=O)NC1([C@H](C)S(=O)(=O)C(C)(C)C)CCCCC1)C1(C)CCCCC1)C2(C)C [Compound 883-fc] | < 75
CCC[C@H](NC(=O)[C@@H]1[C@@H]2[C@H](CN1C(=O)[C@@H](NC(=O)NC1(C3CCCS3(=O)=O)CCCCC1)C1(C)CCCCC1)C2(C)C)C(=O)C(=O)NC1CC1 (some centres unmarked) [Compound 883-fd] | < 75
CC(C)(C)[C@H](NC(=O)NC1([C@H]2CCCS2(=O)=O)CCCCC1)C(=O)N1C[C@H]2[C@@H]([C@H]1C(=O)N[C@@H](CCC1CC1)C(=O)C(=O)NC1CC1)C2(Cl)Cl [Compound 883-g] | < 75
CC(C)(C)[C@H](NC(=O)NC1([C@@H]2CCCS2(=O)=O)CCCCC1)C(=O)N1C[C@H]2[C@@H]([C@H]1C(=O)N[C@@H](CCC1CC1)C(=O)C(=O)NC1CC1)C2(Cl)Cl [Compound 883-h] | < 75
C=CCNC(=O)C(=O)[C@H](CC1CC1)NC(=O)[C@@H]1[C@@H]2[C@H](CN1C(=O)[C@@H](NC(=O)NC1([C@H]3CC(C)(C)CCS3(=O)=O)CCCCC1)C(C)(C)C)C2(C)C [Compound 883-i] | < 75
C=CCNC(=O)C(=O)[C@H](CCCC)NC(=O)[C@@H]1[C@@H]2[C@H](CN1C(=O)[C@@H](NC(=O)NC1([C@H]3CC(C)(C)CCS3(=O)=O)CCCCC1)C(C)(C)C)C2(C)C [Compound 883-j] | < 75
CCCC[C@H](NC(=O)[C@@H]1[C@@H]2[C@H](CN1C(=O)[C@@H](NC(=O)NC1([C@H]3CC(C)(C)CCS3(=O)=O)CCCCC1)C(C)(C)C)C2(C)C)C(=O)C(=O)NC1CC1 [Compound 883-k] | < 75
CC1(C)CCS(=O)(=O)[C@@H](C2(NC(=O)N[C@H](C(=O)N3C[C@H]4[C@@H]([C@H]3C(=O)N[C@@H](CCC3CC3)C(=O)C(=O)NC3CC3)C4(C)C)C(C)(C)C)CCCCC2)C1 [Compound 883-l] | < 75
C=CCNC(=O)C(=O)[C@H](CCCC)NC(=O)[C@@H]1[C@@H]2[C@H](CN1C(=O)[C@@H](NC(=O)NC1([C@H]3CCS3(=O)=O)CCCCC1)C(C)(C)C)C2(C)C [Compound 883-m] | < 75
CCCC[C@H](NC(=O)[C@@H]1[C@@H]2[C@H](CN1C(=O)[C@@H](NC(=O)NC1([C@H]3CCS3(=O)=O)CCCCC1)C(C)(C)C)C2(C)C)C(=O)C(=O)NC1CC1 [Compound 883-n] | < 75
C=CCNC(=O)C(=O)[C@H](CC1CC1)NC(=O)[C@@H]1[C@@H]2[C@H](CN1C(=O)[C@@H](NC(=O)NC1([C@H]3CCS3(=O)=O)CCCCC1)C(C)(C)C)C2(C)C [Compound 883-o] | < 75
CCC[C@H](NC(=O)[C@@H]1[C@@H]2[C@H](CN1C(=O)[C@@H](NC(=O)NC1([C@H]3CCS3(=O)=O)CCCCC1)C(C)(C)C)C2(C)C)C(=O)C(=O)NC1CC1 [Compound 883-p] | < 75
C=CCNC(=O)C(=O)[C@H](CC1CC1)NC(=O)[C@@H]1[C@@H]2[C@H](CN1C(=O)[C@@H](NC(=O)NC1(C3OCCS3(=O)=O)CCCCC1)C(C)(C)C)C2(C)C (some centres unmarked) [Compound 883-q] | < 75
C=CCNC(=O)C(=O)[C@H](CCC)NC(=O)[C@@H]1[C@@H]2[C@H](CN1C(=O)[C@@H](NC(=O)NC1(C3OCCS3(=O)=O)CCCCC1)C(C)(C)C)C2(C)C (some centres unmarked) [Compound 883-s] | < 75
CCC[C@H](NC(=O)[C@@H]1[C@@H]2[C@H](CN1C(=O)[C@@H](NC(=O)NC1(C3OCCS3(=O)=O)CCCCC1)C(C)(C)C)C2(C)C)C(=O)C(=O)NC1CC1 (some centres unmarked) [Compound 883-u] | < 75
C=CCNC(=O)C(=O)[C@H](CCC1CC1)NC(=O)[C@@H]1[C@@H]2[C@H](CN1C(=O)[C@@H](NC(=O)NC1(C3CCCCS3(=O)=O)CCCCC1)C1(C)CCCCC1)C2(C)C (some centres unmarked) [Compound 883-x] | < 75
C=CCNC(=O)C(=O)[C@H](CCC1CC1)NC(=O)[C@@H]1[C@@H]2[C@H](CN1C(=O)[C@@H](NC(=O)NC1([C@H]3CCCS3(=O)=O)CCCCC1)C1CCCCC1)C2(C)C [Compound 883-y] | < 75
C=CCNC(=O)C(=O)[C@H](CCCC)NC(=O)[C@@H]1[C@@H]2[C@H](CN1C(=O)[C@@H](NC(=O)NC1([C@H]3CCCS3(=O)=O)CCCCC1)C1CCCCC1)C2(C)C [Compound 883-z] | < 75

Same assay, conditions: Table 4; read-out: Ki* range

SMILES | Ki [nM]
CC(C)(C)[C@H](NC(=O)N[C@H](CS(=O)(=O)NCCCCl)C(C)(C)C)C(=O)N1C[C@H]2[C@@H]([C@H]1C(=O)NC(CC1CCC1)C(=O)C(N)=O)C2(C)C (some centres unmarked) [Compound 1000] | < 75
C=CCNC(=O)C(=O)C(CC1CC1)NC(=O)[C@@H]1[C@@H]2[C@H](CN1C(=O)[C@@H](NC(=O)N[C@H](CS(=O)(=O)NCCCCl)C(C)(C)C)C(C)(C)C)C2(C)C (some centres unmarked) [Compound 1001] | 75 to 250
C=CCNC(=O)C(=O)C(CCC)NC(=O)[C@@H]1[C@@H]2[C@H](CN1C(=O)[C@@H](NC(=O)N[C@H](CS(=O)(=O)NC(C)(C)C)C(C)C)C(C)(C)C)C2(C)C (some centres unmarked) [Compound 1002] | > 250
C=CCNC(=O)C(=O)C(CCC)NC(=O)[C@@H]1[C@@H]2[C@H](CN1C(=O)[C@@H](NC(=O)N[C@H](CS(=O)(=O)N(C)C(C)(C)C)C(C)C)C(C)(C)C)C2(C)C (some centres unmarked) [Compound 1003] | < 75
C=CCNC(=O)C(=O)C(CC1CC1)NC(=O)[C@@H]1[C@@H]2[C@H](CN1C(=O)[C@@H](NC(=O)N[C@H](CS(=O)(=O)N(C)C(C)(C)C)C(C)C)C(C)(C)C)C2(C)C (some centres unmarked) [Compound 1004] | < 75
C=CCNC(=O)C(=O)C(CCC)NC(=O)[C@@H]1[C@@H]2[C@H](CN1C(=O)[C@@H](NC(=O)N[C@H](CS(=O)(=O)N(C)C(C)(C)C)C(C)(C)C)C(C)(C)C)C2(C)C (some centres unmarked) [Compound 1005] | 75 to 250
C=CCNC(=O)C(=O)C(CC1CC1)NC(=O)[C@@H]1[C@@H]2[C@H](CN1C(=O)[C@@H](NC(=O)N[C@H](CS(=O)(=O)N(C)C(C)(C)C)C(C)(C)C)C(C)(C)C)C2(C)C (some centres unmarked) [Compound 1006] | 75 to 250
C=CCNC(=O)C(=O)C(CCCC)NC(=O)[C@@H]1[C@@H]2[C@H](CN1C(=O)[C@@H](NC(=O)N[C@H](CS(=O)(=O)N(C)C(C)(C)C)C(C)(C)C)C(C)(C)C)C2(C)C (some centres unmarked) [Compound 1007] | 75 to 250
C=CCNC(=O)C(=O)C(CCCC)NC(=O)[C@@H]1[C@@H]2[C@H](CN1C(=O)[C@@H](NC(=O)N[C@H](CS(=O)(=O)N(C)C)C(C)(C)C)C(C)(C)C)C2(C)C (some centres unmarked) [Compound 1008] | 75 to 250

Same assay, conditions: Table 4A; read-out: Ki* Range

SMILES | Ki [nM]
CC(C)[C@@H](CS(=O)(=O)N(C)C(C)(C)C)NC(=O)N[C@H](C(=O)N1C[C@H]2[C@@H]([C@H]1C(=O)NC(CC1CC1)C(=O)C(N)=O)C2(C)C)C(C)(C)C (some centres unmarked) [Compound 1100] | < 75
C#CCCC(NC(=O)[C@@H]1[C@@H]2[C@H](CN1C(=O)[C@@H](NC(=O)N[C@H](CS(=O)(=O)N(C)C(C)(C)C)C(C)C)C(C)(C)C)C2(C)C)C(=O)C(=O)NCC=C (some centres unmarked) [Compound 1102] | < 75
C=CCNC(=O)C(=O)C(CC1CC1)NC(=O)[C@@H]1[C@H]2CC(C)(C)O[C@H]2CN1C(=O)[C@@H](NC(=O)N[C@H](CS(=O)(=O)N(C)C(C)(C)C)C(C)(C)C)C1CCCCC1 (some centres unmarked) [Compound 1103] | 75 to 250
C=CCNC(=O)C(=O)C(CC1CC1)NC(=O)[C@@H]1[C@@H]2[C@H](CN1C(=O)[C@@H](NC(=O)N[C@H](CS(=O)(=O)N(C)C)C(C)(C)C)C(C)(C)C)C2(C)C (some centres unmarked) [Compound 1104] | 75 to 250
C=CCNC(=O)C(=O)C(CCC)NC(=O)[C@@H]1[C@@H]2[C@H](CN1C(=O)[C@@H](NC(=O)N[C@H](CS(=O)(=O)N(C)C(C)(C)C)C(C)(C)C)C1CCCCC1)C2(C)C (some centres unmarked) [Compound 1105] | 75 to 250
C=CCNC(=O)C(=O)C(CC1CC1)NC(=O)[C@@H]1[C@@H]2[C@H](CN1C(=O)[C@@H](NC(=O)N[C@H](CS(=O)(=O)N(C)C(C)(C)C)C(C)(C)C)C1CCCCC1)C2(C)C (some centres unmarked) [Compound 1106] | 75 to 250
C=CCNC(=O)C(=O)C(CC1CC1)NC(=O)[C@@H]1[C@@H]2[C@H](CN1C(=O)[C@@H](NC(=O)N[C@H](CS(=O)(=O)C1CCC1)C(C)C)C(C)(C)C)C2(C)C (some centres unmarked) [Compound 1107] | < 75
C=CCNC(=O)C(=O)C(CCCC)NC(=O)[C@@H]1[C@@H]2[C@H](CN1C(=O)[C@@H](NC(=O)N[C@H](CS(=O)(=O)N(C)C(C)(C)C)C(C)C)C1CCCCC1)C2(C)C (some centres unmarked) [Compound 1108] | < 75
C=CCNC(=O)C(=O)C(CC1CC1)NC(=O)[C@@H]1[C@@H]2[C@H](CN1C(=O)[C@@H](NC(=O)N[C@H](CS(=O)(=O)N(C)C(C)(C)C)C(C)C)C1CCCCC1)C2(C)C (some centres unmarked) [Compound 1109] | 75 to 250
C=CCNC(=O)C(=O)C(CCCC)NC(=O)[C@@H]1[C@@H]2[C@H](CN1C(=O)[C@@H](NC(=O)N[C@H](CS(=O)(=O)N(C)C(C)(C)C)C(C)C)C1(C)CCCCC1)C2(C)C (some centres unmarked) [Compound 1110] | < 75
C=CCNC(=O)C(=O)C(CC1CC1)NC(=O)[C@@H]1[C@@H]2[C@H](CN1C(=O)[C@@H](NC(=O)N[C@H](CS(=O)(=O)N(C)C(C)(C)C)C(C)C)C1(C)CCCCC1)C2(C)C (some centres unmarked) [Compound 1111] | > 250
C=CCNC(=O)C(=O)C(CC1CCC1)NC(=O)[C@@H]1[C@@H]2[C@H](CN1C(=O)[C@@H](NC(=O)N[C@H](CS(=O)(=O)N(C)C(C)(C)C)C(C)C)C1(C)CCCCC1)C2(C)C (some centres unmarked) [Compound 1112] | < 75
